Data reported in publication PMC9911399, “Two distinct binding modes provide the RNA-binding protein RbFox with extraordinary sequence specificity”.
Substitutions are numbered along the chain they refer to; changes in the protein carry UniProt numbers. The list shows a part of the results.

T1: RBFOX1 RRM RbFoxmut (Fox-RRM*) (Homo sapiens, UniProt Q9NWB1 109-208, R118D;E147R;N151S;E152T)
T1 sequence: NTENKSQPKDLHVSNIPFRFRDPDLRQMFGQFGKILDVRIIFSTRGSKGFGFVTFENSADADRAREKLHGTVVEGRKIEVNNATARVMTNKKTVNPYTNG

B1: UCCGAGG (DNA:RNA)
RNA: GGGAGACCGGAAUUCAGAUUGUCCUCCGAGGUUAAAUCCCGUCGUAGCCACCA
DNA 1: CAATCTGAATTCCGGTCTCCC
DNA 2: TGGTGGCTACGACGGGATT
B2: UACUAAA (DNA:RNA)
RNA: B1 RNA with C26A, G28U, G30A, G31A
DNA 1: CAATCTGAATTCCGGTCTCCC
DNA 2: TGGTGGCTACGACGGGATT
B3: CCUACUU (DNA:RNA)
RNA: B1 RNA with U25C, C27U, G28A, A29C, G30U, G31U
DNA 1: CAATCTGAATTCCGGTCTCCC
DNA 2: TGGTGGCTACGACGGGATT
B4: CACGCUA (DNA:RNA)
RNA: B1 RNA with U25C, C26A, A29C, G30U, G31A
DNA 1: CAATCTGAATTCCGGTCTCCC
DNA 2: TGGTGGCTACGACGGGATT
B5: UAACCGA (DNA:RNA)
RNA: B1 RNA with C26A, C27A, G28C, A29C, G31A
DNA 1: CAATCTGAATTCCGGTCTCCC
DNA 2: TGGTGGCTACGACGGGATT
B6: AGGGUCA (DNA:RNA)
RNA: B1 RNA with U25A, C26G, C27G, A29U, G30C, G31A
DNA 1: CAATCTGAATTCCGGTCTCCC
DNA 2: TGGTGGCTACGACGGGATT
B7: GCCUUUU (DNA:RNA)
RNA: B1 RNA with U25G, G28U, A29U, G30U, G31U
DNA 1: CAATCTGAATTCCGGTCTCCC
DNA 2: TGGTGGCTACGACGGGATT
B8: GACAUGG (DNA:RNA)
RNA: B1 RNA with U25G, C26A, G28A, A29U
DNA 1: CAATCTGAATTCCGGTCTCCC
DNA 2: TGGTGGCTACGACGGGATT
B9: GGCGUUA (DNA:RNA)
RNA: B1 RNA with U25G, C26G, A29U, G30U, G31A
DNA 1: CAATCTGAATTCCGGTCTCCC
DNA 2: TGGTGGCTACGACGGGATT
B10: CUUAUAC (DNA:RNA)
RNA: GGGAGACCGGAAUUCAGAUUGUCCCUUAUACUUAAAUCCCGUCGUAGCCACCA
DNA 1: CAATCTGAATTCCGGTCTCCC
DNA 2: TGGTGGCTACGACGGGATT
B11: GCCUCCG (DNA:RNA)
RNA: B1 RNA with U25G, G28U, A29C, G30C
DNA 1: CAATCTGAATTCCGGTCTCCC
DNA 2: TGGTGGCTACGACGGGATT
B12: AUAAAUG (DNA:RNA)
RNA: B10 RNA with C25A, U27A, U29A, A30U, C31G
DNA 1: CAATCTGAATTCCGGTCTCCC
DNA 2: TGGTGGCTACGACGGGATT
B13: CUACCAC (DNA:RNA)
RNA: B10 RNA with U27A, A28C, U29C
DNA 1: CAATCTGAATTCCGGTCTCCC
DNA 2: TGGTGGCTACGACGGGATT
B14: CUAGCUG (DNA:RNA)
RNA: B10 RNA with U27A, A28G, U29C, A30U, C31G
DNA 1: CAATCTGAATTCCGGTCTCCC
DNA 2: TGGTGGCTACGACGGGATT
B15: GAAACCC (DNA:RNA)
RNA: B10 RNA with C25G, U26A, U27A, U29C, A30C
DNA 1: CAATCTGAATTCCGGTCTCCC
DNA 2: TGGTGGCTACGACGGGATT
B16: UAGUGCC (DNA:RNA)
RNA: B10 RNA with C25U, U26A, U27G, A28U, U29G, A30C
DNA 1: CAATCTGAATTCCGGTCTCCC
DNA 2: TGGTGGCTACGACGGGATT
B17: CCGUUAG (DNA:RNA)
RNA: B10 RNA with U26C, U27G, A28U, C31G
DNA 1: CAATCTGAATTCCGGTCTCCC
DNA 2: TGGTGGCTACGACGGGATT
B18: UCGACCU (DNA:RNA)
RNA: B1 RNA with C27G, G28A, A29C, G30C, G31U
DNA 1: CAATCTGAATTCCGGTCTCCC
DNA 2: TGGTGGCTACGACGGGATT
B19: GUAUUGG (DNA:RNA)
RNA: B10 RNA with C25G, U27A, A28U, A30G, C31G
DNA 1: CAATCTGAATTCCGGTCTCCC
DNA 2: TGGTGGCTACGACGGGATT
B20: UAAUUGU (DNA:RNA)
RNA: B1 RNA with C26A, C27A, G28U, A29U, G31U
DNA 1: CAATCTGAATTCCGGTCTCCC
DNA 2: TGGTGGCTACGACGGGATT

target: T1, RBFOX1 RRM RbFoxmut (Fox-RRM*); test: EMSA; HiTS-Eq, 1 nM pool, 10 min; buffer printed only for the single-RNA assays: 10 mM Tris pH 7.5, 150 mM NaCl, 3.4 mM EDTA, 0.001% NP-40, 30 C; conditions: tags: His6 N-terminal (pET28a); label: 5' 32P
How it was run: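 These values rest on relative association constants, computed from read-count changes of each RNA species versus the control reaction and normalised to the cognate motif. Reads came from free RNA recovered by 8% native PAGE after purified RbFox RRM (wild type or mutant) at increasing concentrations was equilibrated for 10 min in 50 µL with 1 nM of a 5′-radiolabelled pool with 7 randomized nucleotides and DNA-annealed flanks.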

First: B1
Second: B2
The binding signal of the first is lower: 0.0607 KA relative to UGCAUGU for the first, 0.0846 KA relative to UGCAUGU for the second.

First: B3
Second: B4
The binding signal of the first is lower: 0.0884 KA relative to UGCAUGU for the first, 0.101 KA relative to UGCAUGU for the second.

Compared with B5, B6 is higher in binding signal: 0.0866 KA relative to UGCAUGU for the first, 0.112 KA relative to UGCAUGU for the second.

First: B7
Second: B8
The binding signal of the first is lower: 0.0724 KA relative to UGCAUGU for the first, 0.139 KA relative to UGCAUGU for the second.

First: B9
Second: B10
The binding signal of the first is higher: 0.118 KA relative to UGCAUGU for the first, 0.102 KA relative to UGCAUGU for the second.

First: B11
Second: B12
The binding signal of the first is lower: 0.0932 KA relative to UGCAUGU for the first, 0.118 KA relative to UGCAUGU for the second.

First: B13
Second: B14
The binding signal of the first is lower: 0.119 KA relative to UGCAUGU for the first, 0.137 KA relative to UGCAUGU for the second.

Compared with B15, B16 is higher in binding signal: 0.0217 KA relative to UGCAUGU for the first, 0.27 KA relative to UGCAUGU for the second.

First: B17
Second: B18
The binding signal of the first is higher: 0.113 KA relative to UGCAUGU for the first, 0.0565 KA relative to UGCAUGU for the second.

First: B19
Second: B20
The binding signal of the first is higher: 0.162 KA relative to UGCAUGU for the first, 0.0755 KA relative to UGCAUGU for the second.
